Measured values: the supplement of paper PMC12355420
Structures can show the parent of a compound that is named as a salt. Some of the results follow. No stated cut-off is given here; in the data, active = 0.5 or less and inactive = the rest. Most values come without repeats; read them as rough.

Experiments:
Details in all cases: 50 µM; 24 h
[1] = test system: HeLa VPS33A reporter cells; assay: relative cell viability (CellMask signal) vs DMSO (fraction of DMSO); higher = less cytotoxic;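 further: primary screen of an FDA-approved drug library in HeLa reporter cells in 96-well format, CellMask signal normalized to DMSO-treated wells set as 1, under 0.5 deemed highly cytotoxic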
[2] = test system: HeLa VPS33A R498W KI + HA-SDC1-FLAG; assay: relative GAG core protein HA-SDC1 amount per cell number vs DMSO (fraction of DMSO); higher = more SDC1 (GAG core protein);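 further: HA-SDC1 level read out by In-Cell Western staining with an anti-HA antibody against the N-terminal tag, screening FDA-approved library drugs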
[3] = test system: HeLa VPS33A KO + NLuc-VPS33A R498W; assay: relative mutant VPS33A R498W amount (NanoLuc luminescence) vs DMSO (fraction of DMSO); HeLa model of a glycosaminoglycan (GAG) storage disease; KI is knock-in and KO knock-out; SDC1 is syndecan 1; higher = higher mutant VPS33A level;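 further: screen of an FDA-approved drug library, NanoLuc luminescence read after lysing the treated cells, taken as a measure of mutant VPS33A protein stability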

| SMILES | relative cell viability [1] | relative GAG core protein HA-SDC1 amount per cell number [2] | relative mutant VPS33A R498W amount [3] |
| --- | --- | --- | --- |
| COc1cc(Cc2cnc(N)nc2N)cc(OC)c1OC [Trimethoprim] | 0.983 | inactive: 0.831 | 1.29 |
| C[C@H]1Oc2cc(cnc2N)-c2c(nn(C)c2C#N)CN(C)C(=O)c2ccc(F)cc21 | 0.964 | active: 0.477 | 0.254 |
| CN(CCOc1ccc(CC2SC(=O)NC2=O)cc1)c1ccccn1 (configuration not stated) [Rosiglitazone] | 1.29 | inactive: 1.12 | 0.476 |
| CC(=O)N[C@@H](CS)C(=O)O [Acetylcysteine] | 1.43 | inactive: 1.13 | 2.97 |
| CCc1cccc2c3c([nH]c12)C(CC)(CC(=O)O)OCC3 (configuration not stated) [Etodolac] | 1.21 | inactive: 0.787 | 1.17 |
| CN1CCN2c3ncccc3Cc3ccccc3C2C1 (configuration not stated) [Mirtazapine] | 0.978 | inactive: 0.872 | 1.24 |
| COC(=O)[C@H](Cc1ccccc1)NC(=O)[C@@H](N)CC(=O)O [Aspartame] | 1.15 | inactive: 0.728 | 1.26 |
| COc1cc2nccc(Oc3ccc(NC(=O)Nc4cc(C)on4)c(Cl)c3)c2cc1OC [Tivozanib (AV-951)] | 0.864 | inactive: 0.66 | 0.516 |
| O=C(O)c1ccc(-n2nc(-c3ccccc3O)nc2-c2ccccc2O)cc1 [Deferasirox] | 1.28 | inactive: 0.73 | 0.761 |
| O=C(O)CC(O)(CC(=O)O)C(=O)O [Citric acid] | 1.13 | inactive: 1.01 | 1.09 |
| CC[C@H](C)[C@H](NC(=O)[C@H](CCC(=O)O)NC(=O)[C@H](CCC(=O)O)NC(=O)[C@H](Cc1ccccc1)NC(=O)[C@H](CC(=O)O)NC(=O)CNC(=O)[C@H](CC(N)=O)NC(=O)CNC(=O)CNC(=O)CNC(=O)CNC(=O)[C@@H]1CCCN1C(=O)[C@H](CCCNC(=N)N)NC(=O)[C@@H]1CCCN1C(=O)[C@H](N)Cc1ccccc1)C(=O)N1CCC[C@H]1C(=O)N[C@@H](CCC(=O)O)C(=O)N[C@@H](CCC(=O)O)C(=O)N[C@@H](Cc1ccc(O)cc1)C(=O)N[C@@H](CC(C)C)C(=O)O [Bivalirudin Trifluoroacetate] | 1.14 | inactive: 1.23 | 1.37 |
| Cc1ccc(S(=O)(=O)NC(=O)NN2CC3CCCC3C2)cc1 (configuration not stated) [Gliclazide] | 0.927 | active: 0.402 | 0.874 |
| O=C(OCc1ccccc1)c1ccccc1 [Benzyl benzoate] | 1.01 | inactive: 0.866 | 1.13 |
| CN(C/C=C/c1ccccc1)Cc1cccc2ccccc12 [Naftifine HCl] | 1.07 | inactive: 0.586 | 0.404 |
| NCCc1ccc(O)c(O)c1 [Dopamine HCl] | 1.05 | inactive: 0.983 | 1.45 |
| C[N+]1(C)[C@@H]2CC[C@H]1C[C@@H](OC(=O)C(O)c1ccccc1)C2 (some centres not stated) [Homatropine Methylbromide] | 1.01 | inactive: 0.799 | 1.02 |
| CC(C)C[C@H](N)C(=O)O [L-Leucine] | 1.01 | inactive: 0.953 | 1.05 |
| CC1(C)S[C@@H]2[C@H](NC(=O)[C@H](N)c3ccccc3)C(=O)N2[C@H]1C(=O)O [Ampicillin] | 1.53 | inactive: 0.84 | 1.16 |
| Cc1cc(O)c2c(c1)C(=O)c1cc(O)cc(O)c1C2=O [Emodin] | 0.998 | inactive: 0.91 | 0.705 |
| COc1ccc2ccc(=O)oc2c1CC=C(C)C [Osthole] | 1.01 | inactive: 1.02 | 1.34 |
| CCCN1CCCC[C@H]1C(=O)Nc1c(C)cccc1C [Ropivacaine HCl] | 1.08 | inactive: 0.811 | 1.19 |
| CCN(C(=O)c1c(O)c2c(Cl)cccc2n(C)c1=O)c1ccccc1 | 1.14 | inactive: 1.19 | 0.931 |
| O=C(CCCN1CCN(c2ccccn2)CC1)c1ccc(F)cc1 [Azaperone] | 1.14 | inactive: 1.12 | 1.15 |
| NC(=O)NC1NC(=O)NC1=O (configuration not stated) [Allantoin] | 0.969 | inactive: 0.999 | 0.978 |
| NCCCC(O)(P(=O)(O)O)P(=O)(O)O [Alendronate sodium] | 1.4 | inactive: 1.44 | 0.891 |
| CCOC(=O)[C@H](CCc1ccccc1)N[C@@H](C)C(=O)N1[C@H](C(=O)O)C[C@H]2CCCC[C@@H]21 [Trandolapril] | 1.01 | inactive: 0.829 | 1.27 |
| OC(Cn1cncn1)(Cn1cncn1)c1ccc(F)cc1F [Fluconazole hydrate] | 1.34 | inactive: 0.752 | 0.763 |
| Cc1cn(-c2cc(NC(=O)c3ccc(C)c(Nc4nccc(-c5cccnc5)n4)c3)cc(C(F)(F)F)c2)cn1 [Nilotinib(AMN-107)] | 1.2 | inactive: 1.56 | 0.49 |
| CCCCOC(=O)c1ccc(O)cc1 [Butylparaben] | 1.06 | inactive: 0.642 | 0.538 |
